The full ranking holds about 33,000 sequences; the median of “E-score (-0.5 to 0.5)” is about -0.016, and the highest 2% start at about 0.32. The list shows a part of the results.

The target in this assay is T1, Stp1 (UniProt B3LFK1).
T1 sequence: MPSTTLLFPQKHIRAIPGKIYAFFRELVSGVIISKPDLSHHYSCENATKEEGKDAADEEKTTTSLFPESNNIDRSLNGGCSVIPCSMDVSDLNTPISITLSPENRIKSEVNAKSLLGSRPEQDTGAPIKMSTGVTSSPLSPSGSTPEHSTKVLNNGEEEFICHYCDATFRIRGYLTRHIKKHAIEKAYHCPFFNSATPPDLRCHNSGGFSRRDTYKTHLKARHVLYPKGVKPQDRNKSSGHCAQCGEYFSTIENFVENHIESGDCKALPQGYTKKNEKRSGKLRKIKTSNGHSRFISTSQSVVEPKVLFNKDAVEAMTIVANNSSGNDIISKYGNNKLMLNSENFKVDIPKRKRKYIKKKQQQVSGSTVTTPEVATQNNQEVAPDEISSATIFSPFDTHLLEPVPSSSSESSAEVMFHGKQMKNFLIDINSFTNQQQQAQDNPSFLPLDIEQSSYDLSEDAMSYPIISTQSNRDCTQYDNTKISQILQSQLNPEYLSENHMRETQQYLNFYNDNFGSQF
Description: PBM E-score (8-mer binding enrichment) (E-score (-0.5 to 0.5)); higher = stronger / more preferred TF binding; most listed sequences are background and not binding sites. As to conditions: protein concentration: 200 nM; construct: GST-full length. In short, it runs like this: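 Detection of bound protein used fluorescent anti-GST, with scans normalised by masliner. The proteins were GST-tagged yeast transcription factors applied at about 100-200 nM to universal all-10-mer Agilent arrays made double-stranded by primer extension. Each ungapped eight-base word, pooled with its reverse complement, was scored with an E-score from the Universal PBM Analysis Suite.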
With ATGAAAAT, the “PBM E-score” value is 0.199.

On to CTGTAAGA, for which the “PBM E-score” value turned out to be 0.0896.

Take CCGTCTAA: the “PBM E-score” value came out at 0.0555.

With TAACCTAA, the “PBM E-score” value came out at 0.0714.

As to CTCACCAC, the “PBM E-score” value was -0.0613.

As for CTGAAGAA, the “PBM E-score” value is -0.149.

CAATCCAC: the “PBM E-score” value is -0.128.

For the sequence TAAGCTGA, the “PBM E-score” value was 0.0192.

Turning to ACCGTGTA, the “PBM E-score” value came to 0.0338.

In the case of AACCGGTA, the “PBM E-score” value is -0.222.

On to GTATGCAA, for which the “PBM E-score” value was 0.161.

With GAATTGGC, the “PBM E-score” value is -0.0522.

Consider ATAAACAT, for which the “PBM E-score” value was 0.222.

Consider CCTTGGGC, for which the “PBM E-score” value is -0.00209.

For the sequence AGCTTTAG, the “PBM E-score” value is -0.049.

For the sequence GGGAGAGA, the “PBM E-score” value is -0.449.

For CTCTAGAA, the “PBM E-score” value is -0.0697.

As to GTACATCA, the “PBM E-score” value was 0.125.

Consider TAAATTCA, for which the “PBM E-score” value was -0.0181.

CCACCAGA: the “PBM E-score” value is 0.0268.

Regarding AGCTGCCT, the “PBM E-score” value was -0.112.

On to ATCGAATA, for which the “PBM E-score” value amounted to 0.0852.

Take TCATATAA: the “PBM E-score” value worked out at 0.227.

As for CGCCCTAC, the “PBM E-score” value turned out to be 0.253.

AACAACTC: the “PBM E-score” value was -0.053.

GCGTGTAA: the “PBM E-score” value was determined as 0.0838.

Consider CGACGTAC, for which the “PBM E-score” value is -0.0502.

CGTAGACG: the “PBM E-score” value turned out to be 0.0087.

GTCGAAGA: the “PBM E-score” value was -0.132.

ACGGTCCG: the “PBM E-score” value is -0.0103.

For the sequence GGGCACAA, the “PBM E-score” value worked out at 0.202.

Regarding GGCAAACA, the “PBM E-score” value was 0.194.

CCAGATCC: the “PBM E-score” value was -0.295.

Take CGTGCAAA: the “PBM E-score” value stood at 0.177.

Turning to GAACGTGC, the “PBM E-score” value amounted to 0.0574.

For the sequence ACGTCGAG, the “PBM E-score” value was -0.244.

GAGAGTGC: the “PBM E-score” value was -0.166.

For ACTAATTG, the “PBM E-score” value was determined as 0.0864.

For the sequence ATATGAGA, the “PBM E-score” value came to 0.0204.

Regarding CCCATTAG, the “PBM E-score” value is -0.364.

Regarding ACCCAACA, the “PBM E-score” value was -0.133.

Regarding CTTGATTC, the “PBM E-score” value was 0.0372.

For the sequence AAGGAGAA, the “PBM E-score” value was -0.131.

For ATACTCTG, the “PBM E-score” value was -0.00108.

With ATAGTTGA, the “PBM E-score” value was -0.0464.

Turning to CCGGATGC, the “PBM E-score” value is -0.106.

Take AGAGCTAA: the “PBM E-score” value was -0.187.

ACGAAGAG: the “PBM E-score” value is -0.0307.

Turning to CAGGCAGC, the “PBM E-score” value was -0.23.

Turning to AGATCATC, the “PBM E-score” value was -0.13.

As to ATTTATAA, the “PBM E-score” value came out at 0.195.

For ACGCTACT, the “PBM E-score” value is -0.168.

Regarding ACAGAAGG, the “PBM E-score” value was -0.081.

Regarding CTTGAGTA, the “PBM E-score” value was -0.00435.

For the sequence CTAGTAAG, the “PBM E-score” value came out at 0.0404.

ATCTAATC: the “PBM E-score” value was determined as 0.0773.

Turning to CATCGGCC, the “PBM E-score” value is -0.103.

Take CATATTGC: the “PBM E-score” value is 0.0265.

For GAAGCAGC, the “PBM E-score” value is -0.167.

For the sequence AGGTAGCC, the “PBM E-score” value is -0.177.

Regarding ACAGCCTG, the “PBM E-score” value is -0.117.

Take CGGCACAC: the “PBM E-score” value came to 0.381.

Take CATGATGG: the “PBM E-score” value is -0.221.

In the case of AGTCAGAA, the “PBM E-score” value was -0.15.

Regarding CTGGCAAC, the “PBM E-score” value is -0.177.

For the sequence TATCTAGA, the “PBM E-score” value worked out at 0.039.

Take GGTAGCAA: the “PBM E-score” value is -0.127.

Consider AGTTAGAC, for which the “PBM E-score” value is 0.124.

On to ATAGATCA, for which the “PBM E-score” value was found to be 0.0678.

For ATGCAAGC, the “PBM E-score” value is -0.0241.

Regarding ATTGTTGA, the “PBM E-score” value amounted to 0.218.

On to AAGTAGTG, for which the “PBM E-score” value is -0.0692.

With ATAACACA, the “PBM E-score” value turned out to be 0.0258.

Take TAATAGTA: the “PBM E-score” value came out at 0.24.

Regarding ATCGGAAG, the “PBM E-score” value is 0.00586.

Consider CCTAGGAG, for which the “PBM E-score” value is -0.119.

For GGGCGGAA, the “PBM E-score” value was -0.0696.

Consider ACATCCAA, for which the “PBM E-score” value came out at 0.00763.

Take GTCCTCCA: the “PBM E-score” value was -0.0507.

On to GTTTATTA, for which the “PBM E-score” value stood at 0.0702.

Consider AACGGACT, for which the “PBM E-score” value was -0.113.

Turning to ACGGCACA, the “PBM E-score” value was 0.479.

For ACCAAGCG, the “PBM E-score” value was -0.126.

As to CCCTAAAA, the “PBM E-score” value was -0.166.

On to GTCGGCCA, for which the “PBM E-score” value is -0.144.

In the case of GGATGAAC, the “PBM E-score” value is -0.0737.

In the case of CCGATCAA, the “PBM E-score” value is -0.19.

With AGTAACAC, the “PBM E-score” value was -0.00067.

Turning to CTCGGGAA, the “PBM E-score” value is -0.0534.

Take CTAGCGCA: the “PBM E-score” value is -0.303.

As to CCAATTAG, the “PBM E-score” value came out at 0.0654.

Turning to ATGGGACC, the “PBM E-score” value was -0.26.

Take CCAGACTA: the “PBM E-score” value is -0.205.

Regarding TACATGTA, the “PBM E-score” value was -0.101.

Take CCCCCCAC: the “PBM E-score” value was -0.271.

As to CTTAGCCA, the “PBM E-score” value is 0.13.

As for CGGGTACG, the “PBM E-score” value was -0.028.

In the case of CTCAGTGC, the “PBM E-score” value was 0.0373.

With CAGGGAGC, the “PBM E-score” value was -0.343.

As to GAGGAGAA, the “PBM E-score” value is -0.2.

On to CATAACTA, for which the “PBM E-score” value was 0.0928.

With CAATACAA, the “PBM E-score” value was -0.0234.

Consider GGTGCCTA, for which the “PBM E-score” value was 0.0845.

Turning to CACATTTC, the “PBM E-score” value came out at 0.0626.

For CGCACAAG, the “PBM E-score” value was determined as 0.0252.

In the case of CAGAGCTA, the “PBM E-score” value was -0.171.

Turning to AAAAGATT, the “PBM E-score” value came to 0.00836.

Take TTTGAAAA: the “PBM E-score” value turned out to be 0.217.

Regarding ATTTATTA, the “PBM E-score” value was found to be 0.324.

The values above are taken from the supplement of paper PMC3334620.
